# Measured values: the supplement of paper PMC3334620
# The full ranking holds about 33,000 sequences; the median of “E-score (-0.5 to 0.5)” is about -0.054, and the highest 2% start at about 0.35. The list shows a part of the results.
# Biological target: T1, Stb5 (UniProt P38699)
# T1 sequence: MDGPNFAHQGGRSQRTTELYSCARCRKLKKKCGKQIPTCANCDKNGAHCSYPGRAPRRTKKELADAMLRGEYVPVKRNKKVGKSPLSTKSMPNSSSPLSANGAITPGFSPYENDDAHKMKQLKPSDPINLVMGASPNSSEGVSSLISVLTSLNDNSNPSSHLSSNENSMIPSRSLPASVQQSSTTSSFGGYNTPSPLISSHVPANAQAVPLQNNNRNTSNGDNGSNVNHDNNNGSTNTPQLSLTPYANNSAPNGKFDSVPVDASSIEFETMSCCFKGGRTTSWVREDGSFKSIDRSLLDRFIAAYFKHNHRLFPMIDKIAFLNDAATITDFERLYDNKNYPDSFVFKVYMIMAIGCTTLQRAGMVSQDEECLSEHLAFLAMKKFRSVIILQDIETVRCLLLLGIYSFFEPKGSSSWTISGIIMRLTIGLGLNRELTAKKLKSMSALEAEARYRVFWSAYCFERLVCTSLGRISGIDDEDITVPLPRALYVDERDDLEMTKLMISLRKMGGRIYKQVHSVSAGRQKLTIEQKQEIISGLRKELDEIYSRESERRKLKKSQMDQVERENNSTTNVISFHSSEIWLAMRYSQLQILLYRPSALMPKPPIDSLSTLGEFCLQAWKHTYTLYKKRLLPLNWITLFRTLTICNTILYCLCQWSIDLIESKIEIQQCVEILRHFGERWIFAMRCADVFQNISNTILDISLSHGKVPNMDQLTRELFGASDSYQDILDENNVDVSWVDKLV
# Test: PBM E-score (8-mer binding enrichment) (E-score (-0.5 to 0.5)); higher = stronger / more preferred TF binding; most listed sequences are background and not binding sites
# Conditions: protein concentration: 200 nM; construct: GST-full length
# How it was run: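 Each ungapped eight-base word and its reverse complement, pooled, received an E-score from the Universal PBM Analysis Suite. Underlying scans, normalised with masliner, recorded fluorescent anti-GST bound to GST-tagged yeast transcription factors. These were applied at about 100-200 nM to universal all-10-mer Agilent arrays double-stranded by primer extension.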
row,Sequence,PBM E-score
1,AAATTGGA,-0.0453
2,AGGTAGTG,-0.043
3,GAGAAACA,0.0306
4,CGGAGGGA,0.14
5,ATCCCTAA,-0.0887
6,CGGCCAAC,0.0563
7,AAAGCCGC,0.365
8,GCAGCGGC,0.307
9,GAGTGTGA,-0.27
10,CACACGTA,-0.275
11,CCGTTGCG,0.231
12,AGATAGTC,-0.0403
13,AAAAGGTT,-0.238
14,ATTCATCC,0.0809
15,CAGTGATC,-0.138
16,CCATAATA,-0.0622
17,CCCTGAGG,-0.172
18,TCTAGAGA,-0.368
19,CGTATTAG,-0.0307
20,GCGGGAAA,0.27
21,GAATTACA,0.076
22,ATGTCGGA,0.303
23,AGATCGAA,-0.212
24,GGCTGAAA,0.0322
25,CTCTCGCC,-0.152

row,Sequence,PBM E-score
1,AGTGGCCG,0.108
2,CGTGACCC,-0.0922
3,GTTTCTTA,0.00445
4,CCCATCGC,-0.028
5,AGCCCATA,-0.139
6,GACTGTGA,-0.114
7,AGGATTCC,-0.222
8,CTAGATGC,-0.205
9,AGCTCTTA,-0.113
10,CCATCTCC,-0.0375
11,GGCCGCCA,0.141
12,AGGAACCT,-0.115
13,ACTCGCTC,-0.333
14,ATAGGCAA,-0.235
15,ATGTTATA,0.0488
16,CTCAGGAA,-0.0964
17,GATTAGGA,0.0582
18,CTGAGACA,-0.214
19,TTAAGCAA,-0.139
20,AGTTTAAG,-0.0387
21,ATCCAGTG,-0.14
22,CCGCGTTA,0.257
23,GCCGGACA,0.401
24,ACGTCGGG,0.334
25,TAATTCTA,-0.0445

row,Sequence,PBM E-score
1,GCGCTCGA,-0.0406
2,CTCCTGGA,-0.279
3,GGTATGTA,0.18
4,ATCTCCGC,0.406
5,CAAGAACA,-0.22
6,ACCCATCT,-0.0238
7,CCACTTGC,-0.109
8,CGCAAAGC,0.205
9,ACGAGGGA,-0.069
10,CTCCGAAA,0.182
11,GAGATGGA,-0.173
12,AGGCTTAA,-0.106
13,AAATGAAA,0.189
14,CGTCGGAA,0.24
15,CGACTCGA,-0.109
16,GCTTGCCA,-0.201
17,AGCGCGCT,0.0759
18,TCGGCGAA,0.181
19,ACTACTAG,-0.0862
20,AGGTATTA,0.212
21,ATTAAGTC,-0.094
22,CATAATCG,0.0763
23,CTACCGCA,0.164
24,AAGAGGTG,-0.0385
25,ACTCTAAA,0.01

row,Sequence,PBM E-score
1,CTGAAGTC,-0.0164
2,GCATCACC,0.125
3,TTCCTAAA,-0.118
4,GGTGACAA,0.273
5,AGAAGTCC,0.0982
6,CCGGCCGG,0.337
7,CAATACGC,-0.0778
8,CTGAACGC,-0.142
9,AGGTGAGG,-0.288
10,GCCCTGCC,-0.0572
11,CCCGGCAA,0.338
12,AAGTGCAA,-0.0923
13,TGTGATAA,-0.171
14,CACATGGA,-0.246
15,TGATTCAA,-0.0846
16,CAACCGGG,0.213
17,ATGAATAC,0.0275
18,TCGCCCAA,-0.239
19,ACGCGCGG,0.301
20,ACAATCGA,-0.161
21,TATACTGA,-0.168
22,ACAAAGTG,-0.151
23,CTCATAGA,-0.131
24,CGTTTGCC,0.00995
25,AGATAATG,0.0139

row,Sequence,PBM E-score
1,ATGAGGAC,-0.167
2,GCCATCGC,0.00556
3,ATTATTAA,0.138
4,TGAAAAAA,-0.0305
5,CACGCCGG,0.268
6,ACCACGTG,-0.0878
7,ACGTGTAG,-0.179
8,GCATCCCC,0.111
9,GCATACAA,-0.11
10,AACGGGAA,0.309
11,ACGGCGAG,0.043
12,GGACTCTA,0.0497
13,ATATCGGG,0.225
14,AATGAAGT,-0.153
15,TCAAATGA,0.0129
16,GAATAAAA,0.144
17,AGTCACCC,-0.101
18,CGTCGGTA,0.357
19,ATGCACAA,-0.216
20,AAACATGG,-0.105
21,AGGGCAGC,-0.329
22,ATATGATG,-0.132
23,GTTGTAAA,-0.118
24,TCCTAAGA,-0.0807
25,GCTTGATA,-0.0825

row,Sequence,PBM E-score
1,ACCAGCGC,-0.046
2,TTGCACAA,-0.0693
3,CGATCATC,0.136
4,AAGGCGGT,0.23
5,AGGCTAGG,-0.186
6,AGCATGTG,-0.158
7,TACGCGAA,0.0101
8,CATGATGA,-0.193
9,AAGTATCG,-0.0376
10,CCCAGCCC,-0.119
11,CCGCTAAA,0.301
12,GGATCCAA,0.0401
13,CGCGGAAG,0.0363
14,GCATTGCC,0.0425
15,GGAACGTA,-0.0894
16,AATAACTC,0.142
17,AATAGTTC,-0.0119
18,ACCGGTGC,0.377
19,ACCGTTTG,0.31
20,AGGGGTCC,-0.107
21,AGGGCCCC,-0.051
22,CGCCCAGA,-0.213
23,TGAGCGCA,-0.179
24,CCTGGCGA,-0.0125
25,TACCGTCA,0.305

row,Sequence,PBM E-score
1,AAAGTTGC,-0.0202
2,TAGCTCAA,-0.15
3,AAGGGGGA,-0.0674
4,AGGTCTTG,-0.0752
5,CGGAGGAA,0.251
6,TGGCAACA,-0.226
7,ATTGTATA,0.0899
8,CAACAGGC,-0.043
9,AATCCAGT,-0.142
10,TATTTCAA,-0.103
11,CCTTAGGA,-0.0624
12,ACGCCATG,-0.293
13,AAGCTTGG,-0.193
14,AACCACCT,0.0318
15,CGCTGGTA,0.261
16,AGGAGGAA,-0.127
17,AACTAGTC,-0.0284
18,ATACTGGG,-0.11
19,AACGATCG,-0.0892
20,ACCCAAGT,-0.211
21,AGCGTGAC,-0.0764
22,CTCTTCCC,-0.103
